According to ChEMBL document CHEMBL4888484, “Replenishing the malaria drug discovery pipeline: Screening and hit evaluation of the MMV Hit Generation Library 1 (HGL1) against asexual blood stage Plasmodium falciparum ,using a nano luciferase reporter read-out” (2022):
Screen size: about 150,000 compounds; about 540 (0.36%) showed an effect of 50% or more. The list shows a part of the results.

System: Plasmodium falciparum
Experiment: Primary screen in NF54 nanoGlo assay, in single point, at 2uM, 72h; a lower Z score goes with more inhibition
Format: functional, Erythrocyte
Conditions: timepoint 72 hour

Structure (SMILES) | % Inhibition | Z score
CCc1cnc([C@H](C)NC(=O)NCCN2CCC(OC)CC2)s1 | -15% | 1.37
COc1nnc(NC(=O)c2ccccc2C2CCC2)s1 | -2% | 0.2
COc1ccc(F)c(F)c1CN1CCC(c2ncon2)CC1 | -6% | 1.05
O=C(c1ccc(Cl)cc1Cl)N(Cc1nc2cc(Cl)ccc2o1)C1CC1 | 16% | -2.05
CC(=O)N[C@@H](CCC(N)=O)C(=O)NC1(C(C)(C)C)CC1 | -3% | 0.66
CCCN(CCO)Cc1ccc(F)cc1F | -15% | 2.25
CC(C(=O)N1CCCC(c2c[nH]nn2)C1)C1CC1 (stereo unspecified) | -6% | 1.15
COc1ccc(NC(=O)[C@H]2CC(=O)OC2(C)C)cn1 | -6% | 0.73
Cn1nncc1C(=O)NCC1(CO)CCCC1 | -2% | 0.27
O=C(CC[C@@H]1NC(=O)NC1=O)N[C@H]1CCCN(Cc2ccccc2)C1 | -6% | 1.1
O=C1NC[C@@H]2CCC[C@@H](CCOc3ccccc3C(=O)N3CCN(Cc4ccc(Cl)c(F)c4)C[C@@H]13)O2 | 10% | -1.51
CC(C)[C@H](N)c1nc(Cn2cnc3ccccc32)no1 | -1% | 0.12
COc1cccc(-c2nc(NC3CCCCC3)c3ccccc3n2)c1O | 5% | -0.65
Cc1cc(O[C@H]2CCN(S(=O)(=O)CCN3C(=O)CCCC3=O)C2)nc(C)n1 | 4% | -0.69
CCc1ccc(S(=O)(=O)C2CS(=O)(=O)CC2N2CCN(Cc3ccccc3)CC2)cc1 (stereo unspecified) | -4% | 0.5
Cc1nc2c([nH]1)CN(C(=O)NCCc1nc(C)c3c(n1)CCCC3)CC2 | -13% | 1.99
CN1CCCCC[C@H]1C(=O)N1CCC2(CCCC2)C1 | -6% | 1.16
O=C(c1cc(O)ccn1)N(CC(F)F)CC1CCC1 | -3% | 0.31
Cc1ccnc(C(=O)N[C@@]2(C)CCCOC2)n1 | -2% | 0.33
COc1cccc(NC(=O)N[C@H]2CO[C@@H](CN3CCC(C)CC3)[C@@H]2O)c1 | 13% | -1.56
O=C1CCCCN1CCC(=O)N1CC[C@H](Cc2ccc(=O)[nH]c2)C1 | -7% | 0.85
Cc1ccccc1CNC(=O)[C@@]1(C)CCCN(S(=O)(=O)c2ccc(C3CCCCC3)cc2)C1 | 9% | -1.45
O=C(c1c(F)cccc1Cl)N1CC(S(=O)(=O)Cc2ccco2)C1 | -12% | 1.58
